# From PubChem BioAssay AID1508623 (National Center for Advancing Translational Sciences (NCATS), 2021)
# The campaign covered roughly 48,000 compounds. About 450 (0.94%) were called active. Roughly 19% stayed inconclusive and do not appear here. The call rests on the fitted dose curve; in most records, active means well fitted inhibition curve with a large enough effect; inconclusive means small, poorly fitted or top-dose-only effect; inactive means no such curve, though single readings can be large or run the other way. Some of the results follow.
# Test: Primary qHTS for Identification of Small Molecule Inhibitors of Huntingtin Promoter Activity; further: nearly all actives have a fitted effect of over 50% in size
# Settings: HEK293 HTT promoter firefly luciferase reporter (activity 0% = vehicle and -100% = no light), 24 h; series mostly up to 57.5 µM; activity change, negative = inhibition: at the top concentration
# Procedure, shortened: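 Luminescence was read after Dual-Glo reagent and a 10 min room-temperature incubation. Values were normalized to vehicle (0% activity) and zero RLU (-100% activity). Reporter HEK293 cells had been exposed to compounds (up to 57.5 uM final) for 24 h.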
row,SMILES,"activity change, negative = inhibition"
1,Cc1ccc(CNS(=O)(=O)c2cc3c(cc2Cl)NC(=O)CO3)o1,inactive: 2.87%
2,Cc1ccc(/C=C/c2onc(C)c2S(=O)(=O)N2CCC(C(=O)Nc3ccc(Br)c(C)c3)CC2)cc1,inactive: -8.26%
3,CCC(CC)C(=O)Nc1cc(-c2ccccc2F)nn1-c1ccccc1,inactive: -15%
4,CNS(=O)(=O)c1cn(CC(=O)Nc2ccc(OC)cc2OC)cc1S(=O)(=O)NC,inactive: 9.2%
5,Cc1ccccc1/C=C(\C#N)c1nc(-c2ccc(Cl)cc2)cs1,inactive: 27.9%
6,Cc1csc2nc(-c3ccc(NS(=O)(=O)c4cc(F)ccc4F)cc3)cn12,inactive: -21.1%
7,Cc1ccc(CNC(=O)c2nnc(Cc3ccc(Cl)cc3)o2)cc1,inactive: -1.78%
8,CN(C(=O)c1ccc2c(Cl)c3c(nc2c1)CCC3)c1ccccc1F,inactive: 12.9%
9,COc1ccccc1C(=O)Nc1ccc(C(=O)OCc2cc(=O)n3nc(C)sc3n2)cc1,inactive: -2.7%
10,CCN(CC)C(=O)Cn1c(=O)n(-c2ccccc2)c(=O)c2c3c(sc21)CCC3,inactive: 0%
11,Cc1ccc(NC(=O)Cn2c(-c3cncs3)nc3ccccc32)c(Br)c1,inactive: -10.4%
12,Cc1ccc(CNC(=O)CN2C(=O)C3(SCC(=O)N3c3ccc(F)cc3)c3ccccc32)cc1 (centres undefined),inactive: -10.8%
13,CC(=O)N1CCc2c(sc3c2c(=O)n(Cc2ccccc2)c(=O)n3Cc2cc(C)ccc2C)C1,inactive: -0.751%
14,CC1CN(C(=O)N2CCC(C(=O)NCCCc3ccccc3)CC2)c2ccccc2O1 (centres undefined),inactive: -29.8%
15,CCOc1ccc(Nc2oc(/C=C/c3cccc(OC)c3)nc2C#N)cc1,inactive: -5.15%
16,CCCCCn1c(CCNC(=O)c2cccc(C)c2)nc2ccccc21,inactive: -29.6%
17,CCc1ccc(CNC(=O)C2CCCN(S(=O)(=O)c3ccc4c(ccn4C)c3)C2)cc1 (centres undefined),inactive: 0%
18,COc1ccc(CNC(=O)CCc2nc(-c3ccc(OC)cc3)no2)cc1,inactive: 13.5%
19,Cc1cc(C)c2c(n1)sc1c(=O)n(-c3ccccc3C(F)(F)F)nnc12,inactive: -2.3%
20,CCC(=O)N1CCc2cc(CNS(=O)(=O)c3cccs3)ccc21,inactive: 33.8%
21,CCCCOc1ccc(CNC(=O)c2ccc3c(c2)N(C)C(=O)C2CCCCN32)cc1 (centres undefined),inactive: -28.5%
22,Cc1ccc(OCCSc2nc3ccc(NC(=O)c4ccc(F)cc4)cc3s2)cc1,inactive: -3.85%

row,SMILES,"activity change, negative = inhibition"
1,CCOC(=O)C(CC)Sc1c(CC)cnc2c1c(=O)n(C)c(=O)n2C (centres undefined),inactive: -15.7%
2,Cc1ccc(Cc2cn3cc(-c4ccc(F)cc4)nc3s2)cc1,inactive: 17.7%
3,COc1ccc(-c2c(C)c3ccc(O)c(CN4CCCC4)c3oc2=O)cc1OC,inactive: -0.185%
4,COc1cccc(-c2cn3ncsc3n2)c1,inactive: 57.7%
5,Cc1ccccc1CSc1ccc(-c2cccs2)nn1,inactive: 1.64%
6,CN1CCC(=C2c3ccccc3Sc3ccccc32)CC1,inactive: -1.67%
7,Cc1cc(C)n(-c2nc(C)c(C)c(=O)n2CC(=O)Nc2ccc(OC(F)(F)F)cc2)n1,inactive: -21.6%
8,Cc1cccc(NC(=O)c2cc(S(=O)(=O)N3CCCCCC3)cn2C)c1C,inactive: -17.6%
9,Cc1ccc(NC(=O)Cn2cc(C(=O)C3CC3)c3ccccc32)cc1C,inactive: 4.21%
10,Cc1ccc(CNC(=O)c2ccc(Cn3c(=O)c4ccccc4n(CC(=O)Nc4c(C)cc(C)cc4C)c3=O)cc2)cc1,inactive: -3.84%
11,O=C(NCC(c1cccs1)S(=O)(=O)c1cccs1)c1cccc(F)c1 (centres undefined),inactive: -26.3%
12,c1cnc(N2CCN(c3ncc4c(n3)CCNC4)CC2)nc1,inactive: 2.03%
13,COc1ccc(OC)c(-n2nnc(-c3nc(-c4cc(OC)c(OC)c(OC)c4)no3)c2C)c1,inactive: 2.58%
14,COc1ccc(-c2nc3ccccc3n3c(-c4ccccc4)c4c(=O)n(C)c(=O)n(C)c4c23)cc1OC,inactive: -5.62%
15,O=c1oc2c3c(ccc2c2ccccc12)OCN(Cc1ccc(Cl)cc1)C3,inactive: -12%
16,O=C(NCc1ccccc1)c1cccn1-c1nnc(N2CCCC2)s1,inactive: -10.9%
17,CC(=O)N1c2ccccc2C(C)(c2ccc(C)cc2)CC1(C)C (centres undefined),inactive: -11.3%
18,O=C(O)C=Cc1ccc(O)c(O)c1,inactive: -3.87%
19,COCCn1c(=O)[nH]c2cc(C(=O)N3CCN(c4ccccc4)CC3)ccc2c1=O,inactive: -9.39%
20,CC(=O)N1CCc2cc(S(=O)(=O)NC(Cc3ccccc3)C(=O)Nc3cc(C)ccc3C)ccc21 (centres undefined),inactive: -8.52%
21,CCOc1ccc(CNC(=O)c2nn(-c3ccc(OC)cc3)c(=O)c3c2c2ccccc2n3C)cc1,inactive: -6.67%
22,NC(=O)CSc1ncc2c(n1)-c1ccccc1N(Cc1ccc(F)cc1)S2(=O)=O,inactive: -15.4%

row,SMILES,"activity change, negative = inhibition"
1,CCOc1ccc(C(=O)Nc2ccc3nc(SCC(=O)N4CCc5ccccc54)sc3c2)cc1,inactive: -7.79%
2,Cc1ccc(-c2ccc(CCC(=O)O)n2-c2ccc(C(N)=O)cc2)cc1,inactive: -10.5%
3,COc1ccc(-c2n[nH]c3c2cnc2ccc(F)cc23)cc1,inactive: 21.8%
4,COc1ccc(-c2cc3ccc(O)c(CN4CCCC4)c3oc2=O)cc1,inactive: 32%
5,Cc1ccc(-c2c(C(=O)NCCc3ccccc3)oc(=O)c3ccccc23)cc1,inactive: -28.4%
6,COc1ccccc1NC(=O)c1cnc(SCC(=O)N2CCOCC2)n(C)c1=O,inactive: 31.3%
7,COc1ccc2c(c1)c1c(c(=O)n(Cc3ccccc3)c(=O)n1Cc1cccc(Cl)c1)n2C,inactive: -10.7%
8,Cc1cc(C)c2oc(-c3ccc(Cl)c(NC(=O)c4cccs4)c3)nc2c1,inactive: -1.21%
9,CCn1cc(C(=O)NCCCOC)c(=O)c2cc(S(=O)(=O)N3CCc4ccccc4C3)ccc21,inactive: -9.63%
10,CCOC(=O)C1CCCN(CC(=O)Nc2cc(C)c3c(=O)oc4ccccc4c3n2)C1 (centres undefined),inactive: -0.467%
11,Cc1cc(C)cc(NC(=O)C2CCN(S(=O)(=O)c3cn(C)cn3)CC2)c1,inactive: -1.42%
12,O=c1oc2ccc3ccccc3c2cc1-c1nnc(Nc2ccccc2F)s1,inactive: 4.52%
13,Cc1ccc(=O)n(-c2ccccc2)c1,inactive: 7.78%
14,Cc1cc2c(cc1NS(=O)(=O)c1cccc(C#N)c1)n(C)c(=O)c(=O)n2C,inactive: -7.94%
15,CCc1cccc(C)c1NC(=O)Cn1nnc(-c2nc(-c3ccccc3F)no2)c1N,inactive: -5.37%
16,COc1ccc(NS(=O)(=O)c2cc3c(cc2C)N(C(C)=O)CCO3)cc1,inactive: -7.42%
17,Cn1cc(S(=O)(=O)N2CCCCCC2)cc1C(=O)Nc1ccc(Cl)c(C(F)(F)F)c1,inactive: -8.07%
18,Cc1ccc(C(C)C)c(OCC(O)CN2CCN(c3ccccc3F)CC2)c1 (centres undefined),inactive: -21.3%
19,Cc1cccc(NC(=O)CSc2nc(-c3ccccc3)cc(=O)[nH]2)c1C,inactive: -13.1%
20,Cc1ccc(NC(=O)CCC(=O)N2Cc3ccccc3Oc3ncccc32)c(C)c1,inactive: -10.2%
